Measured values: PubChem BioAssay AID485294 (National Center for Advancing Translational Sciences (NCATS), 2010)
The campaign covered roughly 370,000 compounds. About 150 (0.041%) were called active. The shares of active, inactive and inconclusive entries below differ from those in the screen. The call rests on the fitted dose curve; in most records, active means well fitted inhibition curve with a large enough effect; inconclusive means small, poorly fitted or top-dose-only effect; inactive means flat fitted curve, though single readings scatter. No potency is given beside an inconclusive call; the fits are too rough.

molecular target: Beta-lactamase (Escherichia coli (strain K12)) (UniProt P00811); assay: qHTS Inhibitors of AmpC Beta-Lactamase (assay with detergent); settings: AmpC hydrolysis of nitrocefin, absorbance 480 nm, 0.01% Triton; activity change, negative = inhibition: at 114 µM (top of the series); further: nearly all actives have a fitted effect of over 25% in size;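 on activity change, negative = inhibition: 0% = no-compound wells and -100% = no-enzyme wells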
Summary of the method: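 20 mM phosphate pH 7.0 + 0.01% (detergent screen) or 0.0001% Triton X-100; 5.3 nM AmpC reagent; cpd preinc 15 min RT; nitrocefin (800 uM stock) to start; A480 q20 s × 4 min; Activity was normalised to no-enzyme and no-compound control wells.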
Potency means the concentration at half of the fitted maximal effect; tags describe the fitted curve by direction and shape.

Sequence of UniProt P00811 (P00811 whole entry, looked up): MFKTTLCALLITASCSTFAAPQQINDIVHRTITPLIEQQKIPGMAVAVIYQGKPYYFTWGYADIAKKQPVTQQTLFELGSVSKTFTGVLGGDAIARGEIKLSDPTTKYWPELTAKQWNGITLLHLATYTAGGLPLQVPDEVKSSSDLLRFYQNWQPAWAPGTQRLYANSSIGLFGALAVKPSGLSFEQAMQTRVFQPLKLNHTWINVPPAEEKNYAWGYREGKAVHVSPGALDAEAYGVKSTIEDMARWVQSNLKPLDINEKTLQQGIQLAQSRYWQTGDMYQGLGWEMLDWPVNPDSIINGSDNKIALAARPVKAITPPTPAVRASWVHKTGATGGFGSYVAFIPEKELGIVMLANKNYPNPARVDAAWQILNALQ

| SMILES | Potency | activity change, negative = inhibition |
| --- | --- | --- |
| CCOc1ccccc1N(CC(=O)Nc1cc(OC)ccc1OC)S(=O)(=O)c1ccccc1 | inconclusive [inhibitor, partial curve] | – |
| Cc1c(CCC(=O)NC2CC2)c(=O)oc2cc(O)ccc12 | inconclusive [inhibitor, full curve, poor fit] | – |
| Cc1ccc(OCc2nnc(NC(=O)c3ccco3)s2)c(C)c1 | inconclusive [inhibitor, full curve] | – |
| COc1ccc(-n2c(=O)cc(N3CCN(Cc4ccccc4)CC3)[nH]c2=O)cc1 | inconclusive [inhibitor, full curve, poor fit] | – |
| CC1Sc2ccc(S(=O)(=O)N3CCC(C(=O)Nc4cccc(Cl)c4)CC3)cc2NC1=O (stereo unspecified) | – | inactive: 3.36% |
| COc1ccc(CN2CCN(Cc3c[nH]c4ccccc34)CC2CCO)cc1C (stereo unspecified) | – | inactive: -9.85% |
| CC(=O)c1ccc(N2CCN(C(=O)Nc3cn(CC(C)C)c(=O)c4ccccc34)CC2)cc1 | – | inactive: 11.6% |
| Cc1ccc(OCC(=O)Nc2ccc3c(c2)C(=O)NC3=O)c(C)c1 | – | inactive: 4.32% |
| COc1cccc(OCC(O)CN(CCO)Cc2ccccc2)c1 (stereo unspecified) | inconclusive [inhibitor, full curve, poor fit] | – |
| O=C(CCN1C(=O)S/C(=C\c2ccc(Cl)cc2)C1=O)Nc1ccc(C(=O)O)cc1 | inconclusive [inhibitor, partial curve, poor fit] | – |
| Cc1ccnc(SC2CC(=O)N(c3ccc([N+](=O)[O-])cc3)C2=O)n1 (stereo unspecified) | – | inactive: -0.74% |
| COc1cccc(CN(C)C(=O)c2cc(S(=O)(=O)N3CCCCCC3)ccc2OC)c1 | inconclusive [inhibitor, full curve, poor fit] | – |
| Cc1ccc2cc(CN(CC3CCCO3)C(=S)Nc3ccccc3)c(=O)[nH]c2c1C (stereo unspecified) | – | inactive: -12.1% |
| CCOc1cc(/C=N/NC(=O)c2cccc(S(=O)(=O)N3CCCC3)c2)ccc1OCC(=O)N(C)C | inconclusive [inhibitor, partial curve, poor fit] | – |
| O=C(CSc1nnc(C2CCCCC2)o1)N1CCCCC1 | – | inactive: -7.76% |
| OCCOCCOc1ccc(-c2nn[nH]n2)cc1 | inconclusive [inhibitor, single point] | – |
| CN1CCN(CC(=O)N/N=C/c2ccc(F)c(F)c2)CC1 | inconclusive [inhibitor, single point] | – |
| CC1=C(C(=O)OCc2ccccc2)C(c2ccco2)n2ncnc2N1 (stereo unspecified) | inconclusive [inhibitor, full curve] | – |
| CCOC(=O)c1sc(=NC(=O)c2ccc(OC(C)C)cc2)n(C)c1C | inconclusive [inhibitor, partial curve, poor fit] | – |
| Cc1ccc(NC(=O)C(Cc2ccccc2)NS(=O)(=O)c2ccc3c(c2)oc(=O)n3C)cc1C (stereo unspecified) | inconclusive [inhibitor, single point] | – |
| Cc1ccc(NC(=S)NCc2ccc(Cl)cc2)c(C)c1 | inconclusive [inhibitor, full curve] | – |
| CN(C)c1ccc(-c2cc(O)c3ncccc3c2)cc1 | inconclusive [inhibitor, full curve, poor fit] | – |

| SMILES | Potency | activity change, negative = inhibition |
| --- | --- | --- |
| COc1ccc(Cn2c(N)c(C(=O)NCc3ccco3)c3nc4ccccc4nc32)cc1OC | inconclusive [inhibitor, single point] | – |
| COCc1c(Br)c(C)nc(OCC(=O)N/N=C/c2ccc(C)o2)c1C#N | inconclusive [inhibitor, full curve, poor fit] | – |
| CCOC(=O)C1CCN(S(=O)(=O)c2cc(-c3cc(C)no3)ccc2OC)CC1 | – | inactive: 3.46% |
| CN(c1cccc(NC(=O)Cc2ccccc2)c1)S(C)(=O)=O | inconclusive [inhibitor, single point] | – |
| CCc1nc2oc3ccccc3c(=O)c2c(=O)n1CCOC | inconclusive [inhibitor, full curve, poor fit] | – |
| Cc1cccc(-c2nc(C#N)c(NC3CCCCC3)o2)c1 | – | inactive: -9.72% |
| S=C(N/N=C1\C2CN3CCN(C2)CC1(c1ccccc1)C3)Nc1ccccc1 | inconclusive [inhibitor, full curve] | – |
| NC(=O)[C@@H]1CCCCNc2c(F)cc([N+](=O)[O-])cc2C(=O)N[C@@H](CCCN=C(N)N)C(=O)NCC(=O)N1 | inconclusive [inhibitor, full curve, poor fit] | – |
| O=C(/C=C/c1ccccc1)NCc1ccc2c(c1)OCO2 | – | inactive: -5.24% |
| Cc1ccc(S(=O)(=O)n2nc(OC(=O)c3ccccc3F)cc2N)cc1 | inconclusive [inhibitor, full curve, poor fit] | – |
| O=C(NC1CCCCC1)C1CCN(S(=O)(=O)c2cccc3nonc23)CC1 | inconclusive [inhibitor, full curve, poor fit] | – |
| COc1ccc(S(=O)(=O)NCc2nc(-c3ccccc3)no2)cc1 | – | inactive: 17.5% |
| CCOc1ccc(C(=O)NC(=S)NC2CCCC2)cc1[N+](=O)[O-] | inconclusive [inhibitor, full curve, poor fit] | – |
| CCCCn1c(SCC(=O)N2CCOCC2)nc2ccccc2c1=O | inconclusive [inhibitor, full curve, poor fit] | – |
| CCCCOc1ccc(C(C)NC(=O)CCS(=O)(=O)Cc2ccc(C)cc2)cc1 (stereo unspecified) | – | inactive: -2.91% |
| CN(CC(=O)Nc1cccc(F)c1)S(=O)(=O)c1ccc2c(c1)n(C)c(=O)c(=O)n2C | – | inactive: 7.96% |
| Cc1ccc(-n2nc(C)cc2NC(=O)c2ccc(C)s2)cc1 | – | inactive: -10.6% |
| COc1ccc(OC)c(C2C(C(=O)Nc3ccc(C)cc3)=C(C)Nc3nnnn32)c1 (stereo unspecified) | – | inactive: -6.9% |
| CN(C(=O)COC(=O)c1cccc(S(=O)(=O)N2CCOCC2)c1)C1CCS(=O)(=O)C1 (stereo unspecified) | inconclusive [inhibitor, partial curve, poor fit] | – |
| CC(C)CCNC(=O)Cn1nc(N2CCN(c3ccccc3)CC2)ccc1=O | inconclusive [inhibitor, single point] | – |
| [O-]/C(=C(\C(=S)Nc1ccc(Cl)cc1)[n+]1ccccc1)c1ccc(OC(F)F)cc1 | inconclusive [inhibitor, partial curve, poor fit] | – |
| Cc1cc(C)c(S(=O)(=O)NC(CC(=O)O)c2cccc([N+](=O)[O-])c2)c(C)c1 (stereo unspecified) | – | inactive: 0.762% |

| SMILES | Potency | activity change, negative = inhibition |
| --- | --- | --- |
| Cc1ccccc1OCC(=O)OCC(=O)N1CCCc2ccccc21 | inconclusive [inhibitor, full curve] | – |
| COc1ccc(S(=O)(=O)N(CC(=O)N/N=C/c2cccs2)c2ccc(C)cc2)cc1OC | inconclusive [inhibitor, full curve] | – |
| Cc1ccc(C(=O)O/N=C(\N)c2ccc(Br)cc2)cc1 | – | inactive: 0.0094% |
| O=C(NCc1ccc2c(c1)OCO2)c1cnc2n(c1=O)CCS2 | inconclusive [inhibitor, full curve, poor fit] | – |
| O=S(=O)(NCCc1csc(-c2ccc(C(F)(F)F)cc2)n1)c1ccc2c(c1)OCCO2 | inconclusive [inhibitor, full curve, poor fit] | – |
| Cc1cc(/C=C2\SC(=Nc3ccc(F)cc3)NC2=O)c(C)n1-c1ccc(S(N)(=O)=O)cc1 | inconclusive [inhibitor, full curve, poor fit] | – |
| COc1cccc(-c2nn(CCC#N)cc2C(=O)Nc2ccccc2Cl)c1 | inconclusive [inhibitor, full curve, poor fit] | – |
| CN1CCN(S(=O)(=O)c2ccc(NC(=S)NC(=O)C3CC3)cc2)CC1 | inconclusive [inhibitor, partial curve] | – |
| COC(=O)c1ccsc1NC(=O)CCS(=O)(=O)c1ccccc1 | – | inactive: 6.99% |
| N#C/C(=C\c1c(N2CCCCC2)nc2ccccn2c1=O)C(=O)NC1CCS(=O)(=O)C1 (stereo unspecified) | inconclusive [inhibitor, full curve, poor fit] | – |
| COc1ccccc1NS(=O)(=O)c1ccc(OC)c(OC)c1 | inconclusive [inhibitor, full curve, poor fit] | – |
| O=C(Nc1cccc([N+](=O)[O-])c1)c1[nH]ncc1Cl | – | inactive: -6.12% |
| COc1cc(CNCCO)ccc1OCC(=O)Nc1ccc(Br)cc1 | inconclusive [inhibitor, full curve, poor fit] | – |
| Cc1cc(C)c2nc3sc(C(=O)N4CCOCC4)c(N)c3cc2c1 | – | inactive: -3.44% |
| CCOc1ccc(NC(=O)CSc2nc3c(c(=O)n2-c2ccccc2OC)SCC3)cc1 | inconclusive [inhibitor, full curve, poor fit] | – |
| O=C(/C=C/c1cn(-c2ccccc2)nc1-c1cccnc1)N1CCCCC1 | – | inactive: -1.85% |
| C=CCn1c(SCc2cccc(C#N)c2)nnc1-c1ccccc1O | inconclusive [inhibitor, full curve] | – |
| O=C(Cc1ccc(Br)cc1)N1CCCCCC1 | inconclusive [inhibitor, partial curve] | – |
| O=C1c2ccccc2CCC12N=NCC2c1ccccc1 (stereo unspecified) | inconclusive [inhibitor, partial curve, poor fit] | – |
| Cc1csc(=O)n1CCC(=O)OCC(=O)Nc1cc(Cl)ccc1[N+](=O)[O-] | inconclusive [inhibitor, full curve, poor fit] | – |
| O=[N+]([O-])c1cccc2nc(-c3ccccc3)c(-c3ccccc3)nc12 | – | inactive: -1.72% |
| O=C(CCC(=O)N(CC(=O)NC1CCCC1)Cc1ccccc1)Nc1nccs1 | inconclusive [inhibitor, full curve, poor fit] | – |
